Results reported in the supplement of paper PMC3334620.
Over roughly 33,000 sequences, “E-score (-0.5 to 0.5)” has its median near -0.035; the highest 2% begin near 0.34. The list shows a part of the results.

What follows are sequences tested against T1, Mot3 (UniProt P54785) (assay: PBM E-score (8-mer binding enrichment) (E-score (-0.5 to 0.5)); higher = stronger / more preferred TF binding; most listed sequences are background and not binding sites). Conditions: protein concentration: 200 nM; construct: GST-full length.
T1 sequence: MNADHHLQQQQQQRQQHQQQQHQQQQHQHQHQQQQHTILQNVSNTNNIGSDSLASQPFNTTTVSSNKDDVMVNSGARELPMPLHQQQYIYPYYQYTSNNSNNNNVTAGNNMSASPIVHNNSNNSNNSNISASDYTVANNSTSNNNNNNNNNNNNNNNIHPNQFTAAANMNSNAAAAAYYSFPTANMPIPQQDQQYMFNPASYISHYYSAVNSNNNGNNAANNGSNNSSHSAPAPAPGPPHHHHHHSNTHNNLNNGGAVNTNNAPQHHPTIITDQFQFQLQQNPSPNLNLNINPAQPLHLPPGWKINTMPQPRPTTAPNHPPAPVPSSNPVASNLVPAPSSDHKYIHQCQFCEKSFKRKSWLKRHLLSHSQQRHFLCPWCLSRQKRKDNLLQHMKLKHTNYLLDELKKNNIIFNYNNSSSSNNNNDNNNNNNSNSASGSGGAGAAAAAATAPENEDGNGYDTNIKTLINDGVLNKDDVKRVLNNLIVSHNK
Procedure, shortened: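 Universal all-10-mer Agilent arrays, double-stranded by primer extension on fresh or once-stripped slides, were probed with about 100-200 nM GST-tagged yeast transcription factors made by PURExpress. Fluorescent anti-GST detected bound protein, and masliner normalised the scans. E-scores from the Universal PBM Analysis Suite were given to each ungapped eight-base word pooled with its reverse complement.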

Sequence	PBM E-score
GGGCAATA	-0.132
ATATCAGC	-0.144
AACGAAGT	0.0591
GACGGCGA	-0.167
ACATTCCG	-0.0576
AAGCGAAA	0.0942
ATGATGAC	-0.179
AATCAAAG	-0.0608
ACCGTGGC	-0.206
AATTAAAG	0.158
AGTCTATA	-0.0584
CAGGGCTA	-0.157
AACACATG	0.269
CTCAGCAA	0.02
AGTTAAAG	0.178
CCACTGTC	-0.302
AAGTGCGA	-0.183
GCGTTTAA	0.291
CCGCCTTC	-0.226
CCCGAAGG	-0.0155
TGCTAGCA	0.0937
GCACACTA	0.0688
CGCTTCTA	-0.0173
AGAACGCG	0.0275
CCAGGAAA	0.324

Sequence	PBM E-score
CGCGCGAA	0.0179
CCTTCCTA	-0.00801
ACCATCTG	-0.338
GGACGGAA	-0.268
ACAAGATA	0.269
CGCCAACG	-0.175
AGCCCCCG	-0.384
GGTTGCCA	-0.198
GCAGCGAC	-0.0367
CCAGTAAG	-0.00718
GCGCAGCA	-0.264
GCTCCTAC	-0.0277
ATGACTAC	0.0213
CTAAGCGA	-0.338
GGTACGGA	0.0472
ACTGCGAA	-0.201
AGGGTAGA	-0.302
AGCTAGGC	0.0872
ACGTCCCA	0.0421
CATGTCGC	0.175
AGCGTAAG	0.0361
CAGCCTAG	-0.159
AGGACCAG	-0.26
ATCACGAG	-0.25
AAGCAAAT	0.19

Sequence	PBM E-score
ACGCTTTG	-0.111
GCTATCCC	-0.238
CTGGTAAA	0.0855
ATCGTTGC	0.154
ATTGAACG	0.0874
CCCTTCTA	-0.152
ACTGGCGC	0.057
ACTCTGAT	-0.0437
CGCGGACG	-0.204
GGCACAGA	0.308
AGCCGCCT	-0.374
TAACGTCA	0.0634
CTGGGGCA	-0.31
AGAACCCC	-0.104
GTAAACGA	0.218
GTGACTGA	0.257
AACCGGCC	-0.301
GCGAGAAA	-0.0294
CCAATGCA	-0.119
AGAGAAAC	0.151
AAGGCGCA	0.336
AGGTGAAT	-0.0328
ACATCCAG	0.142
CACGACGG	0.0919
CCGAAAGG	-0.151

Sequence	PBM E-score
CGATAGCC	-0.0599
CCACCTCG	-0.213
ACTGCCTA	0.199
AAAAGTAA	0.176
CTCGTATA	-0.027
CCTGTTCG	0.202
TGTATGAA	0.143
GGGATTCA	-0.0918
AACTTCAT	-0.0537
GAGGGGCA	-0.0867
GAGTAACC	-0.0468
GGAAGGTA	0.251
CAATAGGC	0.293
AGTGCTAT	-0.267
CAATGAGG	-0.197
GGGGGGAA	-0.375
GAAAGATC	-0.149
CTGTATGC	-0.087
GGCCGCTA	-0.284
ACAACCCG	-0.034
AAAACGCA	0.0022
ACAGAATG	-0.0363
ACATTTGC	0.232
AGCAAGTA	0.139
ACCTGATG	-0.0734

Sequence	PBM E-score
AATGGACC	-0.0323
ATAGTATC	-0.0486
AGGGTTAA	0.108
CTGAGGAA	-0.118
GGTCTTGA	0.0193
CTGCTATC	-0.114
AAAGCCAG	0.159
AATTCGGG	-0.189
ACACAAGC	0.257
TGACTTAA	0.0679
CATCCTAA	-0.0163
AAATTCAA	-0.058
CGAATCCC	-0.156
ACACTACT	0.1
CAGCCAGG	-0.121
ACGCCATA	0.149
CCTCTAGC	-0.0539
CCGCATGA	-0.167
CCCCGTCC	-0.281
AAGCCGCG	-0.049
GAGAATAC	0.0636
CATGACAA	0.107
TCTTGAAA	-0.0342
CTAGGCCA	-0.208
AACACGTG	0.302

Sequence	PBM E-score
GGTCTTAA	-0.141
ACTGCCAG	-0.224
CTTTGTAC	0.193
ATACCCAT	0.142
CAGCTGCG	-0.158
CATGCAAA	0.228
CATCTCAG	-0.0394
ACGACACC	0.011
AAGGGCGG	-0.156
CGTACACG	0.226
AGCACTCA	-0.226
CATCATCA	-0.0891
GACATTTA	0.106
ACGCGGAA	0.0232
AACCACCG	-0.266
CTATCGAA	-0.0709
GTACTTCA	0.198
ACCGTAGA	-0.0608
AGATGCGG	-0.116
GGCCAAAA	-0.129
CCAACCTA	-0.218
CATAACAC	0.316
CACCATAG	-0.145
GATAACCC	-0.0827
ATTGTCCC	0.0214

Sequence	PBM E-score
CGGTCTGC	-0.24
AATTCCAT	0.103
CGACGAAA	0.0822
GACTTGGA	-0.174
AACGCAGG	0.21
CCGGTATC	-0.235
CGTTGGAC	-0.128
AAAGAAGA	0.107
ACGGTGGC	-0.302
ACGATGAA	0.0724
CAAATGGC	-0.0819
ACCCGGTG	-0.292
GATCTTAC	0.0228
GATATTAA	-0.0488
AGCGAGCG	0.00409
CTTCAAGA	0.0893
GACACGTC	0.145
AGGCGGAC	-0.319
AGTTACGA	0.138
CGACATGC	0.279
AGCCCTCC	-0.29
CGAGGCGA	-0.211
AATACACG	0.394
AACTTTAG	0.081
AAGCTCAA	0.00274

Sequence	PBM E-score
CTCTCTTC	-0.152
GCTGAAGC	-0.272
AGACTGAC	-0.135
CTTGCCTA	0.488
AGTAATTG	0.182
GTTAAGGA	0.248
ACTGGGCT	-0.206
ATTGCCTA	0.482
CGCGTCCC	-0.205
CACCGGCA	-0.145
CTGCGTCA	-0.1
AGTTCGTC	-0.0522
ATGTATAG	0.231
GATCTTAA	-0.0152
ACGCTCCG	-0.193
AGGCTTCG	0.00623
ACGAGATC	-0.0961
GCACGCGC	0.252
CGGGACGC	-0.273
AAGAGCTC	0.00626
CTAGCATC	0.103
ACAACTGT	0.068
AAGTGCAG	-0.2
CACCTAGG	-0.0296
ACCCGATC	-0.16

Sequence	PBM E-score
AGAGCGCA	-0.3
AACTCGAC	0.056
ATCCCAAT	-0.0008
AATTTGGG	0.115
AGTGCCTA	0.484
ACTGCGAG	-0.237
AAGAGGGT	-0.191
AGTCAATC	-0.161
AGGAACGC	0.451
GAGCATTA	0.0561
CTTTCGGA	-0.229
ACTACACC	0.118
AGGTCTCC	-0.202
CAATAGAA	-0.174
ATCTCCTA	-0.129
CTGAGCCC	-0.191
CTCTCTAA	-0.297
ATGGGGGG	-0.155
GTGGCAAA	-0.223
ACTACGGG	-0.156
ACGTGCAC	0.048
GCCTGAGC	-0.103
CTCGCGGC	-0.139
CTATACTC	-0.234
AGCCGCCC	-0.104

Sequence	PBM E-score
CGATTCCC	-0.036
AGTGAGTG	-0.136
AGTCGCAC	-0.112
AATTCTTG	0.0618
ACAAAATA	0.175
GATGAATC	0.169
ACTCTAAC	-0.072
CCGAACAG	-0.0905
CGTGTAGC	0.228
CACTTACG	0.0989
AACGCCTG	0.164
ACATCACC	0.0584
ACAATATG	0.118
CCATAAAA	-0.0974
GACAGCCA	-0.186
TCACAGAA	0.0378
CTTGAACC	0.152
AATATATT	0.287
CAACCCGC	-0.109
CGCCCAAA	-0.0759
ACTCTCCA	-0.284
ATCCCTTC	-0.163
AACGACGC	0.157
CGCTGAAC	0.026
GCCAGTGA	-0.241

Sequence	PBM E-score
GACCACAC	0.0153
GACCCCTC	-0.29
GGCCCTAC	-0.281
GCGCGCGC	0.0175
ACCCGGCC	-0.31
AAAGAGTA	0.0928
AGCTTTGA	-0.112
CGGAAGTC	-0.26
CTTTGTGA	0.00176
CCTTCTCA	0.0457
GATTGGTA	-0.00107
AGGCAACG	0.485
CCTGAAAG	0.153
AGGTTATA	-0.0192
ATAAAGTC	-0.0357
CCTCGAAG	-0.0601
GCTGAACA	0.0813
ATACTGAT	0.119
CCGTAGTA	-0.129
GGCTTCAA	0.0155
AACCCGAT	-0.0427
CAGGGTAC	0.0801
CAGCCGGC	-0.346
CTAACCAA	0.144
CCTGACCC	-0.0948

Sequence	PBM E-score
CAGCGCTA	0.0202
TACGGTAA	0.0915
GGGAGTGA	-0.108
AGAAGGCT	-0.0686
AATAGCGC	0.121
CTCCAGCA	-0.212
ATGACCAA	-0.0129
AACACTCG	-0.0687
GGTCCACA	-0.108
CTACTGGC	-0.182
CTGGCCCC	-0.215
CTCTGAGC	0.0146
AAAGGACC	-0.00153
GTGTAACA	0.343
TCGTAAGA	-0.132
ATTGCTAC	-0.0654
AAGAGAAT	0.0869
GTAGTCAA	0.0813
AAGTATGA	0.0108
AAGTGTTC	-0.0251
CGGGAACC	-0.222
CCGAACAC	-0.0162
ACAAGGTA	0.301
GGATAGCC	-0.314
AGTTAAAA	0.232

Sequence	PBM E-score
GCCCCTAC	-0.0748
ACCTTTAA	0.25
AAACTCCG	-0.131
GTATATAC	0.0541
CTGTCATC	-0.213
CATTAAGC	-0.105
TCGACGCA	0.0379
AGGCTACT	-0.0824
GTCGACCA	0.0388
GATTCACC	-0.152
AGCGCACC	-0.0249
ACGGTCGC	-0.158
AGGGTGTA	0.0879
AAGATCGA	-0.155
CTCGTCCA	-0.123
AATGTGAT	0.0837
GTCATGAA	-0.116
ATGTCGAC	0.173
GCCTCGCC	-0.17
AAATGAGG	0.0473
ATTCTCGG	-0.134
CAAGCCTA	0.11
CTTTGGAC	0.018
GTCACCAC	-0.144
ACCAACGA	-0.0281

Sequence	PBM E-score
AGCTTTCG	-0.0766
CAAGGTCC	-0.194
TCCCGAGA	-0.37
GCACAAGA	0.113
AAACCCCG	0.117
GATTACTA	0.122
CCGTACTA	-0.165
ACGAGCAT	-0.123
GCGGGCTA	-0.269
CCAGGGTA	-0.153
CACTAGCG	-0.179
ACGAGTCC	-0.174
GGCCATAC	-0.257
GGACCAAA	-0.222
ACGCTTAC	-0.00046
CATCGTAG	-0.0374
CCTAGTTA	0.0946
CCCACTCA	-0.103
ATCTATCC	-0.109
